The values that follow come from PubChem BioAssay AID1346428 (National Center for Advancing Translational Sciences (NCATS), 2018).

About 1,200 (2.5%) of roughly 48,000 compounds were called active. Inconclusive results (about 2%) are left out.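 The calls were made as follows: active = activation of at least 60% and not above a set upper limit (about 1 call in 100 departs from these limits); inconclusive = activation of 40% to 60%, or above that upper limit; inactive = activation under 40%.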 The list shows a part of the results.

The target of the experiment is Probable G-protein coupled receptor 32 (Homo sapiens) (UniProt O75388). Description: qHTS for Agonists of Human Resolvin D1 Receptor DRV1. Also: 0% is about no effect. The note with it: CHO-K1 GPR32 beta-arrestin PathHunter luminescence, 90 min; at 76.9 µM; hits give high values; zero percent set by DMSO-only wells. In short, it runs like this: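 Agonism was scored by beta-Gal fragment complementation (chemiluminescent read, 1 h detection at ambient temperature) reporting beta-arrestin binding to GPR32 in engineered CHO-K1 cells. Compound treatment lasted 90 min at 37 C, normalized to a DMSO basal control.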
Chain of UniProt O75388 (O75388 whole entry, looked up, the tested form may be a part): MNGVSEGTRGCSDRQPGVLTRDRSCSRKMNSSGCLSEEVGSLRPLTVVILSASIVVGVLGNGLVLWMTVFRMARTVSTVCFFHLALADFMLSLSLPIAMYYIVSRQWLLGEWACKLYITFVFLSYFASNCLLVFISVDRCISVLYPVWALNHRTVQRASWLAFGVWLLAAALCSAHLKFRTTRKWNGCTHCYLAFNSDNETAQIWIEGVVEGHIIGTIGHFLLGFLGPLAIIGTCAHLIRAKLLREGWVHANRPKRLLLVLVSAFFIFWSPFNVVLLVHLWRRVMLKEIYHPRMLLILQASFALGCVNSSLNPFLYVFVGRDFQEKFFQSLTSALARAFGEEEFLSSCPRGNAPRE
In general terms: qHTS replaces the single test concentration by a dilution series.
On to `COc1ccc(NC(=O)Cn2c(=O)n(Cc3nc(C)no3)c(=O)c3cc4c(cc32)OCO4)cc1OC`, for which the activation is inactive: -2.6%.
Turning to `Cc1nc(-c2ccc(Cl)cc2)sc1CCNC(=O)c1ccc(C(F)(F)F)cc1`, the activation is inactive: -3.57%.
For `Cc1ccc(C)c(NC(=O)CCn2nc(C)c3c(C)n(-c4ccccc4)nc3c2=O)c1`, the activation is inactive: 0.704%.
The result for `CCC(C(=O)Nc1ccccc1C(=O)OC)n1nc(C)c2c(C)n(-c3ccc(C)cc3)nc2c1=O` (configuration not stated) reads inactive: -23%; that for `Cc1cccc(-c2nn3c(=O)cc(CN4CCN(S(=O)(=O)c5ccc(Cl)cc5)CC4)nc3s2)c1`, inactive: -7%; that for `Cc1ccc(C)c(NC(=O)c2ccc3c(c2)CCN3S(C)(=O)=O)c1`, inactive: 3.24%.
`CCC1CCc2nc3sc(C(=O)Nc4ccc(F)c(Cl)c4)c(N)c3cc2C1` (configuration not stated): the activation is inactive: 15.5%.
Turning to `COc1ccccc1C(=O)OCc1cc(=O)n2nc(C3CC3)sc2n1`, the activation was inactive: -2.27%.
In the case of `COc1ccc(OC)c(NC(=O)CSc2c3c(nc4cc(Cl)ccc24)CCCC3)c1`, the activation is inactive: -22.9%.
Consider `NC(=O)CSc1nc2cc3c(cc2c(=O)n1CCCCCC(=O)NCc1ccc2c(c1)OCO2)OCO3`, for which the activation is inactive: -11.4%.
The result for `CC(=O)c1cccc(NC(=O)CCS(=O)(=O)c2ccc3c(c2)n(C)c(=O)c(=O)n3C)c1` reads inactive: 0.158%.
As for `COc1ccc(OC)c(NC(=O)C2CCCN(S(=O)(=O)c3ccc4[nH]c(=O)ccc4c3)C2)c1` (configuration not stated), the activation is inactive: -6.1%.
Consider `O=C(Nc1ccccc1C(F)(F)F)C1(S(=O)(=O)c2ccc(Cl)cc2)CC1`, for which the activation is inactive: 2.9%.
Take `CN1CC(=O)N(CC(=O)Nc2cccc(C#N)c2)c2ccccc2C1=O`: the activation was inactive: 20.8%.
Turning to `Cc1ccc(CCNC(=O)c2cnc3c(C)cccn3c2=O)cc1`, the activation was inactive: -8.62%.
The result for `Cc1c(Cl)cccc1NC(=O)Nc1nnc(N(C)C2CCCCC2)s1` reads inactive: 3.93%.
`COc1ccc(-c2cn3c(n2)sc2cc(C(=O)NCC(C)c4ccccc4)ccc23)cc1` (configuration not stated): the activation is inactive: -0.528%.
`CCOC(=O)N1CCN(Cc2nc3cc(NC(=O)c4ccc(F)cc4)ccc3n2C(C)C)CC1`: the activation is inactive: 2.39%.
In the case of `CCOCCCNC(=O)C(NC(=O)C1CCC(C)CC1)C(C)C` (configuration not stated), the activation is inactive: 4.85%.
As to `CN(C1CCCCC1)S(=O)(=O)c1ccc2c(c1)c(=O)c(C(=O)N1CCN(c3ccc(F)cc3)CC1)cn2C`, the activation was inactive: -3.29%.
The result for `Cc1ccc(C(=O)c2cn(Cc3cc(C)ccc3C)c3nc(C)ccc3c2=O)cc1` reads inactive: 33.9%.
Consider `CCCCCCNC(=O)CCc1c(C)nc2nc(-c3cc(OC)cc(OC)c3)nn2c1C`, for which the activation was inactive: -0.534%.
Turning to `CC(C)c1cc(C(=O)NCc2ccc(F)cc2)no1`, the activation was inactive: -9.04%.
The result for `CCS(=O)(=O)n1nc(-c2ccco2)nc1NCc1ccc(C(C)C)cc1` reads inactive: 4.61%; that for `CCc1ccccc1NC(=O)c1nn(-c2ccc(C)cc2)c(=O)c2c1c1ccccc1n2C`, inactive: -8.75%; that for `CC(=O)Nc1ccc(NC(=O)C(NC(=O)C2CCC(C)CC2)C(C)C)cc1` (configuration not stated), inactive: -1.82%.
Regarding `COc1ccc(C)cc1NC(=O)C1CCC(CNS(=O)(=O)c2ccc3c(c2)CCCC(=O)N3)CC1` (configuration not stated), the activation was inactive: -4.1%.
The result for `Cc1ccc(-n2cnc3cc(C(=O)NC4CCCCCC4)ccc32)c(C)c1` reads inactive: -0.111%; that for `O=C(Nc1ccc(F)cc1)c1ccc(CN2CC(=O)N3CCCCC3C2=O)cc1` (configuration not stated), inactive: -14.8%; that for `CCc1ccc(Cn2nnc3c(=O)[nH]c(C4CCCN(C(=O)c5cccc(Cl)c5)C4)nc32)cc1` (configuration not stated), inactive: 16.8%.
The result for `CCn1cc2nc(SCC(=O)Nc3cc(OC)ccc3OC)n(Cc3ccc(Cl)cc3)c(=O)c2n1` reads inactive: -17.2%; that for `Cc1ccc(-n2c(SCC(=O)N3CCc4ccccc43)nc3c([nH]c4ccccc43)c2=O)cc1`, inactive: -2.8%.
For the compound `COc1cc(C2c3c(-c4cc(C)ccc4O)n[nH]c3C(=O)N2Cc2cccnc2)cc(OC)c1OC` (configuration not stated), the activation was inactive: -3.23%.
The result for `CCOc1ccccc1NC(=O)c1ccc2c(c1)CCN2S(C)(=O)=O` reads inactive: -15.7%; that for `CCS(=O)(=O)N1CCc2cc(C(=O)Nc3cc([N+](=O)[O-])ccc3C)ccc21`, inactive: 22.9%.
Regarding `O=C(Nc1ccc(OC(F)(F)F)cc1)c1cc2c(=O)n3ccccc3nc2s1`, the activation was inactive: 21.4%.
As for `CC(C)(C)CC(C)(C)c1ccc(O)c(Cc2ccc(Cl)cc2Cl)c1`, the activation was inactive: 40.3%.
For the compound `COc1ccccc1CCNC(=O)Cn1ccc2cc(S(=O)(=O)N3CCCCC3)ccc21`, the activation was inactive: -15%.
On to `CCCC(=O)Nc1nnc(SCc2cc(=O)n3ccccc3n2)s1`, for which the activation was inactive: -12.3%.
On to `COc1ccc(C(=O)Nc2ccc3nc(SCC(=O)N4CCCC4)sc3c2)cc1`, for which the activation is inactive: -3.9%.
Turning to `O=C(CCn1c(=O)c2cccn2c2cccnc21)N1CCN(c2ccc(F)cc2)CC1`, the activation is inactive: -22.3%.
The result for `Cn1c(=O)c(=O)n(C)c2cc(S(=O)(=O)N3CCCC3C(=O)Nc3cccc(F)c3)ccc21` (configuration not stated) reads inactive: -11.8%; that for `O=C(NC1CCCCC1)c1ccc2c(c1)N(Cc1ccccc1F)C(=O)c1ccccc1S2`, inactive: -12%; that for `Cc1cccc(NC(=O)CSc2nnc(CNC(=O)c3cccc(C)c3)n2-c2ccccc2)c1`, inactive: -8.88%.
The result for `CCCCn1c(CN2CCN(c3ccc(OC)cc3)CC2)nc2c1c(=O)[nH]c(=O)n2C` reads inactive: -14.2%.
As for `Cc1ccc(CNC(=O)C2CCN(Cc3nc(-c4ccccc4C)oc3C)CC2)cc1`, the activation was inactive: 0.32%.
In the case of `CCN(CCN(C)C)C(=O)Cn1ncc2c([nH]c3ccc(C)cc32)c1=O`, the activation was inactive: -5.11%.
The result for `CN1CCN(c2c(F)cc3c(=O)c(C(=O)O)cn4c3c2OCN4C)CC1` reads inactive: -7%; that for `Cc1ccn2c(Nc3ccccc3C)c(-c3ccncc3)nc2c1`, inactive: -25.4%; that for `COc1ccc(-c2noc(CN(C(=O)c3ccccc3Cl)C(C)C)n2)cc1`, inactive: -18%.
The result for `Cc1ccccc1Cn1c(-c2cccs2)nc2ccccc21` reads inactive: -21.5%.
As to `Cc1ccc2nc(CSc3nnc(NC(=O)CC(C)C)s3)cc(=O)n2c1`, the activation is inactive: -2.59%.
Regarding `COC(=O)c1cc(Cl)c(NC(C)=O)cc1OC`, the activation is inactive: -25.3%.
Take `Cc1ccc(Cn2c(CN3CCC(C(=O)NCc4cccnc4)CC3)cc3ccccc32)cc1`: the activation was inactive: 26.9%.
The result for `CCOc1ccc(CNC(=O)CCC(=O)N2Cc3ccccc3Oc3ncccc32)cc1` reads inactive: 2.2%; that for `OC(CCCN1CCCCC1)(c1ccccc1)c1ccccc1`, inactive: -2.06%.
Turning to `Cc1csc2nc(COC(=O)c3cccc(NC(=O)COc4ccccc4Cl)c3)cc(=O)n12`, the activation was inactive: 1.17%.
As to `CCN(CC)CCOC(=O)C(c1ccccc1)c1ccccc1`, the activation was inactive: -1.49%.
Turning to `CCc1cccc(NC(=O)Cc2nc(-c3ccc(OC)cc3)no2)c1`, the activation was inactive: -7.21%.
On to `COCCCNC(=O)c1nn(C)c2c1CS(=O)(=O)c1ccccc1-2`, for which the activation is inactive: -4.73%.
On to `COc1ccc(-c2cn3c(n2)sc2cc(C(=O)NC(C)C45CC6CC(CC(C6)C4)C5)ccc23)cc1` (configuration not stated), for which the activation is inactive: -8.29%.
Consider `COC(=O)CCCn1c(-c2ccc(C)cc2)c(C)n2c3c(=O)n(C)c(=O)n(C)c3nc12`, for which the activation is inactive: 19.7%.
On to `COc1ccc(CNC(=O)CC2N=C3c4ccccc4N=C(SCC(=O)Nc4ccc(C(C)C)cc4)N3C2=O)cc1` (configuration not stated), for which the activation is inactive: -15.9%.
Regarding `O=C(CSc1nnc2[nH]c(=O)cc(-c3ccccc3)n12)Nc1ccc(OC(F)(F)F)cc1`, the activation is inactive: -0.0195%.
Turning to `COCc1cc(C)nc2sc3c(c12)NC(c1ccccc1C(=O)O)N(c1cccc(C(F)(F)F)c1)C3=O` (configuration not stated), the activation is inactive: -9.98%.
The result for `COc1cc([N+](=O)[O-])ccc1NC(=O)c1nc2ccccc2n(C)c1=O` reads inactive: -4.77%; that for `Cc1ccc(S(=O)(=O)c2nc(-c3cccc(Br)c3)oc2N2CCCCCC2)cc1`, inactive: -8.87%; that for `CCOC(=O)C1CCN(S(=O)(=O)c2cc3c4c(c2)C(C)C(=O)N4CCC3)CC1` (configuration not stated), inactive: -6.26%.
On to `Cc1cccc(C(=O)Nc2c(C(=O)N3CCN(c4ccc(F)cc4)CC3)oc3ccccc23)c1`, for which the activation is inactive: -1.04%.
As to `CCN(CC)c1cc(C)c2cc(NC(=O)c3cc(OC)cc(OC)c3)ccc2n1`, the activation was inactive: -3.79%.
Take `COc1cccc(N2CCN(C(=O)CCSCc3ccccc3F)CC2)c1`: the activation was inactive: -20.6%.
The result for `O=C(Cc1ccc(Cl)cc1)NCC(c1cccs1)S(=O)(=O)c1ccccc1` (configuration not stated) reads inactive: -6.91%; that for `CCCSc1ncc(Cl)c(C(=O)Nc2sc(C(C)=O)c(C)c2C(=O)OCC)n1`, inactive: -2.97%; that for `Cc1cc(=O)n(Cc2c(F)cccc2Cl)c2c1c(C)nn2-c1cccc(F)c1`, inactive: -9.8%.
For the compound `COc1ccccc1C(=O)Nc1cccc(C(=O)OCc2cc(=O)n3c4c(sc3n2)CCCC4)c1`, the activation is inactive: -26.2%.
For `CCOc1ccc(NC(=O)Cn2c(=O)n(CC3CCC(C(=O)NCCc4ccccc4)CC3)c(=O)c3ccccc32)cc1` (configuration not stated), the activation is inactive: -3.51%.
Consider `COc1ccc(NC(=O)CSc2oc(-c3ccco3)nc2S(=O)(=O)c2ccc(C)cc2)c(OC)c1`, for which the activation was inactive: -20.6%.
With `CC(=O)Nc1ccc(NC(=O)c2cc(CN3CCCC3)on2)cc1`, the activation was inactive: 3.6%.
Consider `Cc1ccc(C)c(NC(=O)CSc2nnc3[nH]c(=O)cc(-c4ccccc4)n23)c1`, for which the activation was inactive: -18.3%.
In the case of `COc1cc(C(=O)NC(c2ccccc2Cl)c2cc(Cl)c3cccnc3c2O)cc(OC)c1OC` (configuration not stated), the activation is inactive: -62.9%.
As for `CCOC(=O)c1ccccc1NC(=O)NCc1c(-n2cccc2)sc2c1CCCC2`, the activation was inactive: 2.29%.
Turning to `CCOc1ccc(NC(=O)C(CC(C)C)N2Cc3ccccc3C2=O)cc1` (configuration not stated), the activation is inactive: -29.4%.
